According to patent US20130058928A1 (Five Prime, published 2013):

Assays:
[1] = target: T1, FGF-18 (recombinant, mouse origin) (mouse, UniProt O89101 28-207, limits assumed); experiment: SPR, Biacore T100; Fc fusion captured on Protein-A CM5 chip, FGF as analyte, 50 ug/ml heparin; average of two independent measurements
T1 construct: Bought recombinant protein
T1 sequence (looked up): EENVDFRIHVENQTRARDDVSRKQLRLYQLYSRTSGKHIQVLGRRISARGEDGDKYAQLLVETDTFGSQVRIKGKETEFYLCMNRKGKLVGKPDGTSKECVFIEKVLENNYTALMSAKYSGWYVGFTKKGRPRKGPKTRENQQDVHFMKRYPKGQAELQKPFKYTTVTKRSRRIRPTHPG
Description: (§1) The specificity of FGF ligand binding to an FGFR3-IIIc ECD-Fc (SEQ ID NO: 10) was assessed using Biacore® T100 surface plasmon resonance (SPR) technology (Biacore; Piscataway, N.J.). Expression constructs for expressing the FGFR3-IIIc ECD-Fc (SEQ ID NO: 10) fusion protein in 293-6E host cells using the pTT5 vector were made in a manner similar to that described above using cDNAs prepared internally and conventional techniques. The FGFR3-IIIc ECD-Fc fusion protein was produced from 293-6E host cells as described in WO/2007/014123 (PCT/US06/028597) (Examples 2 and 3).
(§2) Protein-A was covalently linked to a CM5 chip, according to manufacturer's instructions and then an FGFR ECD fusion protein was bound to the chip by the interaction of the Fc domain with the Protein-A. The FGF ligands were placed in contact with the FGFR ECD fusion protein, also according to manufacturer's instructions, in the presence of HBS-P buffer (Biacore; Piscataway, N.J.) supplemented with 50 ug/ml heparin (Sigma; St. Louis, Mo.).

FGF-1 = target: T2, FGF-1 (human, UniProt P05230); experiment: as above
T2 construct: Bought recombinant protein
Description: as §1, §2

FGF-19 = target: T3, FGF-19 (human, UniProt O95750); experiment: SPR, Biacore T100; Fc fusion captured on Protein-A CM5 chip, FGF as analyte, 50 ug/ml heparin
T3 construct: Bought recombinant protein
Description: as §1, §2

FGF-5 = target: T4, FGF-5 (human, UniProt P12034 23-268, limits assumed); experiment: as above
T4 construct: Bought recombinant protein
T4 sequence (looked up): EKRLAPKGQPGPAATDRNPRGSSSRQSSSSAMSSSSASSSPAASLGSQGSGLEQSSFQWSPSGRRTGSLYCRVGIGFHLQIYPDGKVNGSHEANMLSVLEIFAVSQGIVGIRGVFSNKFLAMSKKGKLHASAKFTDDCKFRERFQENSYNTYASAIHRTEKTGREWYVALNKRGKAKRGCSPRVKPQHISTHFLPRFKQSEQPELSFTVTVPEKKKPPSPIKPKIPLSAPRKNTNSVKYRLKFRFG
Description: as §1, §2

FGF-20 = target: T5, FGF-20 (human, UniProt Q9NP95 2-211, limits assumed); experiment: as above
T5 construct: Bought recombinant protein
Description: as §1, §2

FGF-7 = target: T6, FGF-7 (human, UniProt P21781 32-194); experiment: as above
T6 construct: Bought recombinant protein
T6 sequence (looked up): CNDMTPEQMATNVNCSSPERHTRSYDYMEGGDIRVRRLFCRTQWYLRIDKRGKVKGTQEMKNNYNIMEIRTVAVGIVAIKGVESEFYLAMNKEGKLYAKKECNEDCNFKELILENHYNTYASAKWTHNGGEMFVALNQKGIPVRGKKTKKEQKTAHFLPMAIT
Description: as §1, §2

FGF-9 = FGF-9 (human, UniProt P31371); experiment: as above
Description: as §1, §2

FGF-4 = target: T7, FGF-4 (human, UniProt P08620 54-206, limits assumed); experiment: as above
T7 construct: Bought recombinant protein
T7 sequence (looked up): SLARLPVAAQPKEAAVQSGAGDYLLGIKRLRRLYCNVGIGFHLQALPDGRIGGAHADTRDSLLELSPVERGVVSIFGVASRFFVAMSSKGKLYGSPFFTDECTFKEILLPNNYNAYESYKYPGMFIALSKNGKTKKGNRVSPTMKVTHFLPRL
Description: as §1, §2

Sequence of FGF-20 (Q9NP95 2-211 limits assumed): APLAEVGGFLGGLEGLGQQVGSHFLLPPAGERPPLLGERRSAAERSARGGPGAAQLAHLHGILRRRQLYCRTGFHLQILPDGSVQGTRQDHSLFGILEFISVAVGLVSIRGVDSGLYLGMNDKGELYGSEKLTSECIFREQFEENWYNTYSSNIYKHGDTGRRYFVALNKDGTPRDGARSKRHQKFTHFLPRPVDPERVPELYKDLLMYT
Sequence of FGF-1 (P05230 16-155 limits assumed): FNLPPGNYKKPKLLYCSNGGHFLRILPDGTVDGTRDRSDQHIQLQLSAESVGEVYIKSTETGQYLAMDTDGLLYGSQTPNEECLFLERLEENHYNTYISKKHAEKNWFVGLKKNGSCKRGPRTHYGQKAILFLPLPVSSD
Sequence of FGF-19 (O95750 25-216 limits assumed): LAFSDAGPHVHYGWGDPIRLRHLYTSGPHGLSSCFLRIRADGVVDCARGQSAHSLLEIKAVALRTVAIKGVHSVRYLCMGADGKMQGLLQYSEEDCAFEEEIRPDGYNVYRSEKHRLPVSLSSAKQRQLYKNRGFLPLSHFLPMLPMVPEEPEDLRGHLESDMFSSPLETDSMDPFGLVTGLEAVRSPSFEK

B1: FGFR3-IIIc ECD-Fc (FGFR3-IIIc ECD + GS linker + Fc) (Fc fusion)
chain: ESLGTEQRVVGRAAEVPGPEPGQQEQLVFGSGDAVELSCPPPGGGPMGPTVWVKDGTGLVPSERVLVGPQRLQVLNASHEDSGAYSCRQRLTQRVLCHFSVRVTDAPSSGDDEDGEDEAEDTGVDTGAPYWTRPERMDKKLLAVPAANTVRFRCPAAGNPTPSISWLKNGREFRGEHRIGGIKLRHQQWSLVMESVVPSDRGNYTCVVENKFGSIRQTYTLDVLERSPHRPILQAGLPANQTAVLGSDVEFHCKVYSDAQPHIQWLKHVEVNGSKVGPDGTPYVTVLKTAGANTTDKELEVLSLHNVTFEDAGEYTCLAGNSIGFSHHSAWLVVLPAEEELVEADEAGSVYAGGS[human IgG1 Fc with changes left out]
notes: Produced in 293-6E host cells (pTT5 vector); Captured through its Fc on Protein-A coupled to a CM5 chip; also called FGFR3-IIIc-Fc; FGFR3-IIIc ECD Fc fusion with a GS linker
B1 was tested, and the koff [1] was 0.00018 s⁻¹, the koff (FGF-1) was 0.000331 s⁻¹ and the koff (FGF-19) was 0.443 s⁻¹. It also gave a koff (FGF-5) of 0.00169 s⁻¹, a kon (FGF-5) of 231000 M⁻¹ s⁻¹ and a koff (FGF-20) of 0.000404 s⁻¹. The koff (FGF-7) was 0.0471 s⁻¹, the koff (FGF-9) was 0.000417 s⁻¹ and the koff (FGF-4) was 0.00155 s⁻¹.
